Experimental data published in PubChem BioAssay AID588591 (National Center for Advancing Translational Sciences (NCATS), 2011).
The campaign covered roughly 390,000 compounds. About 4,700 (1.2%) were called active. Inconclusive means that the source gave no clear call. Such entries were picked first, then a sample of the others. Calls follow the shape of the dose curve; as a rule, active = well fitted inhibition curve with a large enough effect; inconclusive = small, poorly fitted or top-dose-only effect, or another doubt; inactive = no such curve, though single readings can be large or run the other way. Potencies beside an inconclusive call are fits to weak or partial responses and may not hold up.

target: DNA polymerase eta (Homo sapiens) (UniProt Q9Y253); assay: qHTS for Inhibitors of Polymerase Eta; conditions: recombinant Pol eta, fluorescent DNA replication assay; series mostly up to 114 µM; activity change, negative = inhibition: at the top concentration
Chain of UniProt Q9Y253 (Q9Y253 whole entry, looked up): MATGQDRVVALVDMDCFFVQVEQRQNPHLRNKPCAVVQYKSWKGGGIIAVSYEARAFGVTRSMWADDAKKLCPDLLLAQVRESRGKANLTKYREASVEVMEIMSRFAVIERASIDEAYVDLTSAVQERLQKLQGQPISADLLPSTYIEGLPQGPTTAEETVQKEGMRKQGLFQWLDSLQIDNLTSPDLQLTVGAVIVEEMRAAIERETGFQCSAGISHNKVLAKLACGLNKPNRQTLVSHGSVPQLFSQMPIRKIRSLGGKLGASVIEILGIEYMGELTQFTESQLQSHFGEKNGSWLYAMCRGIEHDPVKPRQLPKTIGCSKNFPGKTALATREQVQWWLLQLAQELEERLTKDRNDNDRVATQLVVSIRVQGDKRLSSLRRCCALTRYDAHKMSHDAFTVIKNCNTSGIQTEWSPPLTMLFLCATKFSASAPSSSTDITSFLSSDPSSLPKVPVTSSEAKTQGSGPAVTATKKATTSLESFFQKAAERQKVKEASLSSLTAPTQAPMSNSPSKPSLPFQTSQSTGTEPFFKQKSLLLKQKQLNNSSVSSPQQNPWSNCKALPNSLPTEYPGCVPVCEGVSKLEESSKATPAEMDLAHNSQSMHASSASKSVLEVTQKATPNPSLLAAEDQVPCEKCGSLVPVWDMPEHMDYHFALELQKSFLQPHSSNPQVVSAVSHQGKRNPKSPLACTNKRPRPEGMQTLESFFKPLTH
Summary of the method: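 Pol eta at 10 nM preincubated with compounds 15 min at room temperature; reaction started with fluorescent substrate (50 nM final) and read kinetically at 0 and 10 min.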
% is scaled to controls: 0 for no effect and ±100 for the full control effect; potency is read from the fitted curve at half-maximal effect; tags tell the direction and shape of the fitted curve.

Row | SMILES | Potency | activity change, negative = inhibition
1 | Oc1ccc(/C=N/N=C(c2ccccc2)c2ccccc2)c(O)c1O | active: 3.16 µM | 
2 | O=c1cc(-c2ccco2)oc2c1ccc1ccccc12 | inconclusive: 10 µM [inhibitor, partial curve, poor fit] | 
3 | CC1=CC(C)(C)NC(=S)N1c1cccc2cc(S(=O)(=O)O)ccc12 | active: 12.6 µM | 
4 | COC1=CC(=O)c2ccccc2C1=O | inconclusive: 79.4 µM [inhibitor, single point] | 
5 | CCOc1ccc2nc(NC(=O)c3nc(SCc4ccccc4F)ncc3Cl)sc2c1 |  | inactive: -13.9%
6 | COc1ccc(-c2nc3cc(NC(=S)NC(=O)Cc4ccccc4)ccc3o2)cc1 | inconclusive: 79.4 µM [inhibitor, partial curve, poor fit] | 
7 | CCOc1ccc(NC2=CC(=O)C(=O)c3ccccc32)cc1 | active: 39.8 µM | 
8 | CC(=O)Nc1ccc(C=NNc2ccc(S(=O)(=O)Nc3ccccc3C(=O)O)cc2[N+](=O)[O-])cc1 | active: 22.4 µM | 
9 | Cc1ccc(C2=NS(=O)(=O)N(C)C(C(=O)NCc3ccc4c(c3)OCO4)=C2)cc1 | inconclusive: 79.4 µM [inhibitor, partial curve, poor fit] | 
10 | Cc1ccc2nc(COc3cccc(NC(=O)Nc4ccc(C)c(Cl)c4)c3)cc(=O)n2c1 |  | inactive: -18.4%
11 | CCC(=O)c1ccc(OCC(=O)N2CCN(S(=O)(=O)c3ccc(Cl)s3)CC2)cc1 | active: 44.7 µM | 
12 | CCCS(=O)(=O)N1CC(=O)N(c2cccc(Cl)c2)C(C)(C(=O)NC2CCCCC2)C1 (centres undefined) |  | inactive: 0.357%
13 | CC(C)(C)c1nnc(N/N=C/c2ccccc2)n(N)c1=O |  | inactive: -15.9%
14 | O=C(c1ccco1)c1cn(CC(=O)N2CCCCCC2)c2ccccc12 | inconclusive: 22.4 µM [inhibitor, partial curve, poor fit] | 
15 | CC(=O)Nc1ccc(NC(=O)c2ccc3c(c2)N(Cc2cccc(Cl)c2)C(=O)c2ccccc2S3=O)cc1 (centres undefined) |  | inactive: -14.7%
16 | COc1ccc2nc(SCC(=O)Nc3cc(OC)c(OC)cc3C(=O)O)c(C)cc2c1 | inconclusive: 79.4 µM [inhibitor, single point] | 
17 | COc1ccc(S(=O)(=O)c2c[nH]c(=S)[nH]c2=O)cc1Cl | inconclusive: 25.1 µM [inhibitor, full curve] | 
18 | COc1ccc(NC(=O)Nc2cc(-c3cn4cccnc4n3)ccc2C)cc1 |  | inactive: -19.2%
19 | CC(C)(C)c1ccc(S(=O)(=O)/N=C2\C=C(NS(=O)(=O)c3ccccc3)C(=O)c3ccccc32)cc1 | active: 79.4 µM | 
20 | Cc1ccc(C)c(NC(=O)CN2C(=O)CCc3cc(S(=O)(=O)N4CCCCC4)ccc32)c1 |  | inactive: -17.3%
21 | CCCN(CCC)C(=O)c1ccc2c(=O)n(Cc3ccco3)c(=S)[nH]c2c1 | inconclusive: 79.4 µM [inhibitor, partial curve, poor fit] | 
22 | COc1cc(/C=C/C(=O)OCC(=O)Nc2ccc(C)cc2[N+](=O)[O-])ccc1O | inconclusive: 17.8 µM [inhibitor, partial curve, poor fit] | 

Row | SMILES | Potency | activity change, negative = inhibition
23 | CN(CC(=O)Nc1cccc(F)c1)C(=O)c1cccc(-n2cccc2)c1 | active: 7.94 µM | 
24 | O=c1c2ccccc2nc(N/N=C/c2c(O)ccc3ccccc23)n1O | inconclusive: 39.8 µM [inhibitor, partial curve, poor fit] | 
25 | O=C(/C=C/c1ccccc1)c1cc(Br)ccc(=O)c1O | inconclusive: 20 µM [inhibitor, full curve] | 
26 | COc1ccc(O)c(C(=O)c2cc(SCC(=O)O)c3nc4sc5c(c4c(=O)n3c2)CCCC5)c1 | active: 22.4 µM | 
27 | CC(C)NC(=O)c1onc(CSc2ccc(Cl)cc2)c1C(=O)NC(C)C | inconclusive: 79.4 µM [inhibitor, partial curve, poor fit] | 
28 | CC(C)C[C@H]1CN=C(Nc2ccccc2)N1CC1CCC(C)CC1 (some centres undefined) | inconclusive: 89.1 µM [inhibitor, partial curve, poor fit] | 
29 | COc1ccc(C(=O)C(CCC(CNC(C)(C)C)C(=O)c2ccc(OC)cc2)CNC(C)(C)C)cc1 (centres undefined) | inconclusive: 89.1 µM [inhibitor, partial curve, poor fit] | 
30 | COc1cccc(-c2nnc(SCc3ccc(C#N)cc3)n2Cc2ccco2)c1 | inconclusive: 39.8 µM [inhibitor, partial curve, poor fit] | 
31 | O=C1OCC2=C1C(c1cccc(Cl)c1)CC(=O)N2c1ccc(C(F)(F)F)cc1 (centres undefined) |  | inactive: 0.85%
32 | Cc1c(C(=O)N/N=C/c2ccc(O)c(Br)c2)sc(N)c1C#N | inconclusive: 22.4 µM [inhibitor, partial curve, poor fit] | 
33 | N#C/C(=C(/O)CSc1ncn[nH]1)c1nc2ccccc2[nH]1 | inconclusive: 25.1 µM [inhibitor, full curve] | 
34 | C=CCn1c(SCC(=O)Nc2ccc(-c3nc4ccc(C)cc4s3)cc2)nnc1-c1ccccc1 | inconclusive: 14.1 µM [inhibitor, partial curve, poor fit] | 
35 | CCC(=O)N(CCC(c1ccc(C)cc1)c1ccco1)Cc1ccco1 (centres undefined) | inconclusive: 56.2 µM [inhibitor, partial curve, poor fit] | 
36 | O=c1c2c([nH]c3ccccc13)CCCC2 |  | inactive: -10%
37 | O=C(/C=C/c1ccco1)NC(=S)Nc1ccc(C(=O)O)cc1 | active: 7.08 µM | 
38 | Cc1nnc(SCc2ccccc2)nc1/C=C/NOCc1ccc(Cl)cc1Cl | inconclusive: 79.4 µM [inhibitor, partial curve, poor fit] | 
39 | CCC1CCC/C1=N\NC(=O)c1ccccc1C (centres undefined) |  | inactive: -14%
40 | CCOc1ccc(S(=O)(=O)Nc2ccccc2SC)c2cccnc12 | inconclusive: 39.8 µM [inhibitor, partial curve, poor fit] | 
41 | Cc1cc(OCC(=O)Nc2ccc(N3CCN(C(=O)c4ccco4)CC3)cc2)cc(C)c1Cl | active: 79.4 µM | 
42 | COc1ccc(CCN(C)C(=O)COC(=O)/C=C/c2ccc(C)o2)cc1OC | inconclusive: 28.2 µM [inhibitor, single point] | 
43 | COc1ccccc1NC(=S)NC(=O)/C=C/c1ccco1 | active: 20 µM | 
44 | COc1ccc(OCCNC(=O)c2cc(C3CC3)nc3c2cnn3C(C)C)cc1 | inconclusive: 28.2 µM [inhibitor, full curve] | 
